# Measured values from the supplement of paper PMC12217912.
# The other results are listed elsewhere or left out. Sequences were assembled here from the parent chain. Values near 0.05 are background.
# B1: TEV protease; numbered along this chain (parent)
# chain: MGESLFKGPRDYNPISSSICHLTNESDGHTTSLYGIGFGPFIITNKHLFRRNNGTLVVQSLHGVFKVKDTTTLQQHLVDGRDMIIIRMPKDFPPFPQKLKFREPQREERICLVTTNFQTKSMSSMVSDTSCTFPSGDGIFWKHWIQTKDGQCGSPLVSTRDGFIVGIHSASNFTNTNNYFTSVPKNFMELLTNQEAQQWVSGWRLNADSVLWGGHKVFMVKPEEPFQPVKEATQL
# Variants of: B1
# Assay: raw area under fraction-flipped curve 0-4 h after induction (AUC4h, not background-subtracted), DNA-recorder readout of cleavage of the substrate (dimensionless); higher = more cleavage of the substrate by the protease variant
# Settings: temperature: 34 °C; time window: 0-4 h after rhamnose induction
# Procedure: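 In vivo DNA recorder in E. coli TOP10(DE3) ΔrhaA at 34 °C. Each TEVp single-site mutant (parent TEVp 0) is paired with a single-site variant of the 7-mer TEVs (canonical ENLYFQ|S). The substrate sits between flexible linkers in a Bxb1-sfGFP-TEVs-SsrA fusion, so cleavage stabilises Bxb1 and speeds flipping of a recombination array, read by NGS. The value is the raw area under the fraction-flipped curve over 0-4 h after rhamnose induction (AUC4h), with ≥20 reads per time point. It is not background-subtracted; inactive controls average about 0.047.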
# 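Further: Bxb1 expression induced with 0.2% (w/v) L-rhamnose at OD600 near 0.5, cultures sampled hourly, flipped fraction per protease–substrate barcode pair counted by paired-end Illumina sequencing.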
Variant,area with substrate ENLAFQS,area with substrate ENLCFQS,area with substrate ENLDFQS,area with substrate ENLEFQS,area with substrate ENLHFQS,area with substrate ENLIFQS,area with substrate ENLKFQS,area with substrate ENLLFQS,area with substrate ENLNFQS,area with substrate ENLPFQS,area with substrate ENLQFQS,area with substrate ENLRFQS,area with substrate ENLSFQS,area with substrate ENLVFQS,area with substrate ENLWFQS,area with substrate ENLFFQS,area with substrate ENLMFQS,area with substrate ENLTFQS,area with substrate ENLGFQS
MGESLFKGPRDYNPISSSICHLDNESDGHTTSLYGIGFGPFIITNKHLFRRNNGTLVVQSLHGVFKVKDTTTLQQHLVDGRDMIIIRMPKDFPPFPQKLKFREPQREERICLVTTNFQTKSMSSMVSDTSCTFPSGDGIFWKHWIQTKDGQCGSPLVSTRDGFIVGIHSASNFTNTNNYFTSVPKNFMELLTNQEAQQWVSGWRLNADSVLWGGHKVFMVKPEEPFQPVKEATQL [T23D],0.0675,0.0471,0.0647,0.0553,0.0685,0.0975,0.0668,0.0668,0.0614,0.0429,0.0521,0.0454,0.0566,0.101,0.0712,–,–,–,–
MGESLFKGPRDYNPTSSSICHLTNESDGHTTSLYGIGFGPFIITNKHLFRRNNGTLVVQSLHGVFKVKDTTTLQQHLVDGRDMIIIRMPKDFPPFPQKLKFREPQREERICLVTTNFQTKSMSSMVSDTSCTFPSGDGIFWKHWIQTKDGQCGSPLVSTRDGFIVGIHSASNFTNTNNYFTSVPKNFMELLTNQEAQQWVSGWRLNADSVLWGGHKVFMVKPEEPFQPVKEATQL [I15T],0.0498,–,0.0407,0.0669,0.0694,–,0.0727,0.0697,0.0676,0.0602,0.0576,0.0556,0.0427,–,0.0706,0.0813,0.063,–,–
MGESVFKGPRDYNPISSSICHLTNESDGHTTSLYGIGFGPFIITNKHLFRRNNGTLVVQSLHGVFKVKDTTTLQQHLVDGRDMIIIRMPKDFPPFPQKLKFREPQREERICLVTTNFQTKSMSSMVSDTSCTFPSGDGIFWKHWIQTKDGQCGSPLVSTRDGFIVGIHSASNFTNTNNYFTSVPKNFMELLTNQEAQQWVSGWRLNADSVLWGGHKVFMVKPEEPFQPVKEATQL [L5V],0.0689,–,0.054,–,–,0.102,0.0871,0.0569,–,0.0572,–,–,0.0617,–,–,0.0852,–,–,–
MGESCFKGPRDYNPISSSICHLTNESDGHTTSLYGIGFGPFIITNKHLFRRNNGTLVVQSLHGVFKVKDTTTLQQHLVDGRDMIIIRMPKDFPPFPQKLKFREPQREERICLVTTNFQTKSMSSMVSDTSCTFPSGDGIFWKHWIQTKDGQCGSPLVSTRDGFIVGIHSASNFTNTNNYFTSVPKNFMELLTNQEAQQWVSGWRLNADSVLWGGHKVFMVKPEEPFQPVKEATQL [L5C],0.0609,0.0942,0.0791,–,0.0659,–,0.0631,–,0.0681,–,0.0655,–,–,0.0807,0.0712,0.089,0.0871,–,–
MGESAFKGPRDYNPISSSICHLTNESDGHTTSLYGIGFGPFIITNKHLFRRNNGTLVVQSLHGVFKVKDTTTLQQHLVDGRDMIIIRMPKDFPPFPQKLKFREPQREERICLVTTNFQTKSMSSMVSDTSCTFPSGDGIFWKHWIQTKDGQCGSPLVSTRDGFIVGIHSASNFTNTNNYFTSVPKNFMELLTNQEAQQWVSGWRLNADSVLWGGHKVFMVKPEEPFQPVKEATQL [L5A],0.0621,0.0743,0.0608,–,0.0809,0.0995,0.0853,–,–,0.0538,0.0498,0.08,0.0444,0.0548,–,0.129,–,0.0669,–
MGESLFKGPRDYNPISSHICHLTNESDGHTTSLYGIGFGPFIITNKHLFRRNNGTLVVQSLHGVFKVKDTTTLQQHLVDGRDMIIIRMPKDFPPFPQKLKFREPQREERICLVTTNFQTKSMSSMVSDTSCTFPSGDGIFWKHWIQTKDGQCGSPLVSTRDGFIVGIHSASNFTNTNNYFTSVPKNFMELLTNQEAQQWVSGWRLNADSVLWGGHKVFMVKPEEPFQPVKEATQL [S18H],0.0556,0.0816,–,–,–,0.0885,0.0879,0.0596,–,0.0612,0.0746,–,–,–,0.0827,0.0873,–,–,–
MGESLFKGPFDYNPISSSICHLTNESDGHTTSLYGIGFGPFIITNKHLFRRNNGTLVVQSLHGVFKVKDTTTLQQHLVDGRDMIIIRMPKDFPPFPQKLKFREPQREERICLVTTNFQTKSMSSMVSDTSCTFPSGDGIFWKHWIQTKDGQCGSPLVSTRDGFIVGIHSASNFTNTNNYFTSVPKNFMELLTNQEAQQWVSGWRLNADSVLWGGHKVFMVKPEEPFQPVKEATQL [R10F],0.0641,0.0377,0.0548,–,0.0698,–,0.0722,0.0223,0.061,0.0629,0.0667,0.0744,0.0632,–,0.0899,–,–,–,0.0763
MGESLFKGPTDYNPISSSICHLTNESDGHTTSLYGIGFGPFIITNKHLFRRNNGTLVVQSLHGVFKVKDTTTLQQHLVDGRDMIIIRMPKDFPPFPQKLKFREPQREERICLVTTNFQTKSMSSMVSDTSCTFPSGDGIFWKHWIQTKDGQCGSPLVSTRDGFIVGIHSASNFTNTNNYFTSVPKNFMELLTNQEAQQWVSGWRLNADSVLWGGHKVFMVKPEEPFQPVKEATQL [R10T],0.0716,–,–,–,0.06,0.0694,0.0781,–,0.0581,–,0.0697,0.082,0.0717,–,0.0731,–,0.0746,–,0.0568
MGESLFKGPRDYNPISSSICHLTNEYDGHTTSLYGIGFGPFIITNKHLFRRNNGTLVVQSLHGVFKVKDTTTLQQHLVDGRDMIIIRMPKDFPPFPQKLKFREPQREERICLVTTNFQTKSMSSMVSDTSCTFPSGDGIFWKHWIQTKDGQCGSPLVSTRDGFIVGIHSASNFTNTNNYFTSVPKNFMELLTNQEAQQWVSGWRLNADSVLWGGHKVFMVKPEEPFQPVKEATQL [S26Y],0.068,–,0.0615,–,0.0638,–,–,0.0712,0.0617,–,0.0629,–,0.0686,–,–,0.0563,0.079,–,0.0791
